The values that follow come from patent US20220135678A1, “METHODS AND COMPOSITIONS TO IMPROVE THE SAFETY AND EFFICACY OF CELLULAR THERAPIES” (University of Southern California, priority 2019, published 2022).

One assay concerns HSPCs. Nature of the assay: In vitro myeloid differentiation of control or CD33-AMR HSPCs, phagocytosis. The assay is classed as cell-based, human. The settings on record: differentiated in vitro with myeloid cytokines. An excerpt: Human cells obtained from HSPC-engrafted mouse bone marrow show characteristic morphologic features of normal stem cell (blast), myeloid progenitor (promyelocyte), and terminal effector cells (monocytes and neutrophils).

The subject of another assay is human CD34+ cells. Nature of the assay: Engraftment of control or CD33-AMR HSCs in NSG mice. The assay is classed as in vivo. The procedure: More detailed functional evaluation of AMR HSCs is performed in comparison with control HSC in vivo. […] Cell morphology is analyzed by cytospin and characteristic cell surface markers (CD1 lb, CD 15, CD 14, CD 16, CD45, CD66b, and HLA-DR) by flow cytometry.
Twelve weeks later, the percentage of hCD45 in peripheral blood (engraftment) is measured. […] Bone marrow is harvested from NSG mice after 16 weeks of primary engraftment then transferred into secondary recipients and analyzed after 12 additional weeks.

The next assay has as its system Molm14, an AML cell line. Kind of assay: NSG mice engrafted with HSPCs, injected with Molm14 AML, treated with CD33 CAR-T. The settings on record: mouse, in vivo. The procedure: AML disease burden is measured by bioluminescent imaging (BLI), while human HSPCs are measured by flow cytometry of the peripheral blood.

B1: CD33-AMR: antigen masking receptor targeting CD33 expressed in CD34+ stem cells by lentiviral gene transfer (protein)
chain: MALPVTALLLPLALLLHAARPDEIVLTQSPGSLAVSPGERVTMSCKSSQSVFFSSSQKNYLAWYQQIPGQSPRLLIYWASTRESGVPDRFTGSGSGTDFTLTISSVQPEDLAIYYCHQYLSSRTFGQGTKLEIKRGGGGSGGGGSGGGGSQVQLQQPGAEVVKPGASVKMSCKASGYTFTSYYIHWIKQTPGQGLEWVGVIYPGNDDISYNQKFQGKATLTADKSSTTAYMQLSSLTSEDSAVYYCAREVRLRYFDVWGQGTTVTVSSTRAKPTTTPAPRPPTPAPTIASQPLSLRPEACRPAAGGAVHTRGLDFACDIYIWAPLAGTCGVLLLSLVITLYCKRGRKK
With B1, the “phagocytosis percentages versus control HSPCs” value in the assay with HSPCs is “No significant differences”. For the same molecule, in the assay on human CD34+ cells (bone marrow harvested after 16 weeks), the “human CD45+ engraftment in bone marrow versus control” value was “equal levels”. For the same molecule, in the assay on human CD34+ cells (mouse, in vivo), the “CD33 expression on human myeloid cells in engrafted mice” value is listed as “significantly reduced” and the “myeloid development in engrafted NSG mice” value was “normal myeloid development”. In addition, the “myeloid cells in peripheral blood, spleen and bone marrow after CD33 CAR-T treatment of AML” value in the assay with Molm14, an AML cell line was “persistent CD 14+ myeloid cells”.
